In PubChem BioAssay AID1159614 (National Center for Advancing Translational Sciences (NCATS), 2016):
Hit rate of the full screen: of about 45,000 compounds, about 65 (0.1%) were called active. Calls come from the whole dose curve; as a rule, active = well fitted activation curve with a large enough effect; inconclusive = small, poorly fitted or top-dose-only effect; inactive = no such curve, though single readings can be large or run the other way. The list shows a part of the results.

Target: Galactocerebrosidase (Homo sapiens) (UniProt P54803)
Chain of UniProt P54803 (P54803 whole entry, looked up): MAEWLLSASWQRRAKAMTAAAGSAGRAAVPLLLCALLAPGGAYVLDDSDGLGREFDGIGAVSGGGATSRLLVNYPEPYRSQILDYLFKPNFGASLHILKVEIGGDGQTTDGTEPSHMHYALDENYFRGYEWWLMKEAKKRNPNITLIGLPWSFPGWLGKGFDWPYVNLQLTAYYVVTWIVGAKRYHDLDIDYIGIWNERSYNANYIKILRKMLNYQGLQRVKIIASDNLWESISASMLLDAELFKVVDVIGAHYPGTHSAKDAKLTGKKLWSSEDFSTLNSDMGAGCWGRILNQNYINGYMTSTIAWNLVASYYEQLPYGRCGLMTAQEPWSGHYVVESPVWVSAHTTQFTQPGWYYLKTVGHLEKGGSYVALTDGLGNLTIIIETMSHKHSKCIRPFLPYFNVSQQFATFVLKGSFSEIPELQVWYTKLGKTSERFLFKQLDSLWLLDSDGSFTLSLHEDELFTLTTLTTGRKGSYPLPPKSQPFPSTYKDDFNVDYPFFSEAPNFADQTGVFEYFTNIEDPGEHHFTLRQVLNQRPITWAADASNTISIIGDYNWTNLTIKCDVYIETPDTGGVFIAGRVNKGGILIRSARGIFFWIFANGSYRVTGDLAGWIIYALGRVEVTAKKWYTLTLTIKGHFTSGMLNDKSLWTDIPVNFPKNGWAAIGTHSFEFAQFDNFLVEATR
Assay: A Novel Cell-Based Assay to Identify Small Molecules for B -Galactocerebrosidase; note: 0% is about no effect; nearly all actives have a fitted effect of over 65% in size
Conditions: 145M-Twi-hGALC-G270D cells (Twitcher mouse brain line with human GALC G270D), HMU-beta-Gal fluorescence, 48 h; series mostly up to 57.5 µM; activation: at the top concentration
Summary of the method: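 Brain-derived Twitcher mouse 145M-Twi cells stably expressing human GALC-G270D or wild-type GALC, treated live, then residual GALC activity read by fluorescence of HMU-b-Gal substrate (0.1 mM final) in citrate-phosphate buffer pH 5.2 with sodium taurocholate. Signal increase indicates enhancement.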

activation, inactive:
COC(=O)c1ccc(NC(=O)CSc2ncc3c(n2)-c2cc(Cl)ccc2N(Cc2ccccc2)S3(=O)=O)cc1 -11.2%
COc1ccc(C)cc1NC(=O)Cn1c(=O)ccc2cc(S(=O)(=O)N3CCC(C)CC3)ccc21 -0.988%
CCOc1ccc(CCNC(=O)c2ccc(CS(=O)Cc3cccc(Cl)c3)o2)cc1 (stereo not given) 1.06%
COc1ccc(NC(=O)c2c(NCc3sccc3C)sc3c2CCCCC3)c(OC)c1 -13.8%
Cc1ccc2c(=O)c(C(=O)c3ccc(Cl)cc3)cn(CC(=O)NC3CCCCC3)c2n1 -16.4%
COc1ccc2c(c1)c(=O)c(S(=O)(=O)c1ccc(C)cc1)cn2Cc1ccccc1C 0.459%
COC(=O)c1sccc1S(=O)(=O)N(CC(=O)Nc1c(C)cccc1C)c1ccc(C)c(C)c1 -9.58%
COC(=O)C(C)n1nnc2sc(-c3ccccc3)cc2c1=O (stereo not given) -8.43%
Cc1ccc(NC(=O)CCC(=O)N2CCSc3ccccc32)cc1Cl -6.67%
CCOC(=O)N1CCc2c(sc3c2c(=O)n(Cc2ccccc2)c(=O)n3CC(=O)Nc2ccc(C)c(C)c2)C1 -9.95%
CCC(C(=O)Nc1cc(F)ccc1F)n1nc(-c2cc(C)ccc2C)ccc1=O (stereo not given) -3.41%
COc1ccc(Br)cc1C(=O)Nc1ccc(-c2nc3cc(Cl)ccc3o2)cc1 -8.82%
Cc1c(NC(=O)c2cccc3c(Cl)cccc23)cccc1-c1nc2ccccc2o1 -6.94%
O=C(CCS(=O)(=O)c1cc(Br)cc2c1N(C(=O)C1CC1)CC2)NCc1ccccc1Cl -7.34%
Cc1c(NC(=O)C(C)(C)Oc2ccc(Cl)cc2)cccc1-c1nc2ncccc2o1 -11.7%
CC1=C(C(=O)NCc2ccccc2C)C2(CCCCC2)OC1=O 1.34%
CC(=O)c1ccc(NC(=O)Cn2cc(S(=O)(=O)Cc3ccccc3Cl)c3ccccc32)cc1 1.29%
Cc1c(Cl)cccc1NC(=O)Nc1nnc(N(C)Cc2ccccc2)s1 0.12%
Cc1c(N(C)C)c(=O)n(-c2ccccc2)n1C -10.8%
Oc1c(Cl)cc(Cl)c(Cl)c1Cc1c(O)c(Cl)cc(Cl)c1Cl -3.3%
COCCCNC(=O)CSc1nc2cc3c(cc2c(=O)n1CCCC(=O)NCc1ccc(OC)cc1)OCO3 -5.08%
COc1ccc(N(CC(=O)Nc2cc(C)ccc2C)S(=O)(=O)c2ccc(OC)c(OC)c2)cc1 -2.24%
O=C(COc1ccccc1[N+](=O)[O-])Nc1cccc(-c2nc3ccccc3s2)c1 -8.5%
Cn1c(=O)c2c(nc(Oc3ccccc3)n2Cc2c(Cl)cccc2Cl)n(C)c1=O -11.4%
CCc1ccc(C2c3c(oc4ccc(F)cc4c3=O)C(=O)N2c2nc(C)c(C(=O)OC)s2)cc1 (stereo not given) -13.6%
CCOc1ccc(NC(=O)CN2C(=O)COc3ccc(S(=O)(=O)NC4CCCC4)cc32)cc1 -38%
O=C(Nc1ccc(F)cc1F)c1ccc2c(O)c(S(=O)(=O)c3ccc(Cl)cc3)c(=O)[nH]c2c1 -21.4%
COc1cc(NC(=O)CSc2nc3nc(C)c(Cc4ccc(C)cc4)c(C)n3n2)cc(OC)c1OC -10.1%
O=C(CSc1cn(CC(=O)N2CCOCC2)c2ccccc12)Nc1ccccc1 -6.39%
O=C(COCc1cc(-c2ccc3c(c2)OCO3)on1)NCc1ccccc1Cl -23%
O=C(Nc1c(C(=O)O)oc2ccccc12)c1ccc(C(F)(F)F)cc1 -13%
O=C(COc1ccccc1)Nc1ccccc1OCc1cc(=O)n2ccccc2n1 -9.04%
CC1=C(c2ccc(C)c(C)c2)S(=O)(=O)N(Cc2ccc(C(=O)NC(C)c3ccccc3)cc2)C1=O (stereo not given) -6.41%
Cc1ccccc1Cc1c(C)nc2nc(SCC(=O)NCCc3ccc(Cl)cc3)nn2c1C -8.92%
COc1ccccc1OCC(=O)NCc1nc(-c2ccc(Cl)cc2)no1 -2.9%
CCOc1ccc(C(=O)Nc2ccc(S(=O)(=O)Nc3nc(C)cc(C)n3)cc2)cc1OC -16.1%
CCOC(=O)c1cc(S(=O)(=O)N2CCN(c3ccc(C)cc3C)CC2)[nH]n1 2.29%
Cc1ccc(C)c(NC(=O)CSC2=Nc3ccccc3N=C(c3ccc(F)cc3)C2)c1 -2.59%
COc1cccc(N2CCN(c3ncnc4onc(-c5ccc(F)cc5)c34)CC2)c1 -2.88%
Cc1ccc(S(=O)(=O)c2nnn3c2nc(N2CCCC2)c2sccc23)cc1 -5.18%
Cc1ccc(-c2nnc3c4ccccc4c(C)nn23)cc1NC(=O)c1ccccc1Cl -4.41%
O=C(C1CCCN(S(=O)(=O)c2cccc3nsnc23)C1)N1CCN(c2ccccc2Cl)CC1 (stereo not given) -14.5%
O=C(CCCCCn1c(=O)[nH]c2ccccc2c1=O)NCc1ccccc1 -13.6%
Cc1ccc2c(c1)c(N1CCCC1=O)c(C(=O)Nc1ccc(F)cc1F)n2C -24.6%
Cc1cccc(N(C)c2ccc3cc(S(=O)(=O)N4CCCC4)ccc3n2)c1 -13.7%
CCC(=O)N1CCc2cc(S(=O)(=O)NC(Cc3ccccc3)C(=O)Nc3cccc(OC)c3)ccc21 (stereo not given) -3.7%
Cc1nc2scc(C)n2c(=O)c1S(=O)(=O)N1CCN(c2cccc(C(F)(F)F)c2)CC1 -10.9%
CN(C)c1ccc(NC(=O)Cn2cc(S(=O)(=O)Cc3cccc(Cl)c3)c3ccccc32)cc1 9.11%
Cc1cc(C(=O)NCc2ccc(Cl)cc2)c2c(C)nn(-c3ccccc3)c2n1 -10.7%
COC(=O)c1c(NC(=O)Nc2ccc(Cl)cc2)sc(C)c1C -8.64%
COc1ccccc1CNC(=O)CCC1N=C2c3ccccc3N=C(SCc3ccc(C)cc3)N2C1=O (stereo not given) -2.78%
CC(=O)c1cc(-c2ccccc2)n(CCC(=O)Nc2ccc(C)cc2C)c1C -17.1%
COc1ccc(N2CC(NC(=O)c3cc4ccccc4o3)CC2=O)cc1 (stereo not given) -9.45%
CS(=O)(=O)N1CCc2cc(C(=O)N3CCN(c4ccccc4)CC3)ccc21 -26.5%
Cc1ccc2c(c1)N(C(=O)Nc1cccc(C)c1C)CCO2 -21.8%
COc1ccc(CCC(=O)NCCc2csc(-c3ccc(C(F)(F)F)cc3)n2)cc1 3.84%
CCCc1nnc(NC(=O)c2cc(=O)c3cc(Cl)ccc3o2)s1 -8.26%
COc1ccccc1NC(=O)NCc1cccn1Cc1ccccc1 -2.04%
CCCC1=Nc2cc(C(=O)NCCc3ccccc3)ccc2Sc2ccc(C)cc21 -42.2%
Cc1cc(Br)ccc1NC(=O)c1ccc(NS(=O)(=O)c2c(C)noc2C)cc1 -13.3%
